The values below come from ChEMBL document CHEMBL4888484, “Replenishing the malaria drug discovery pipeline: Screening and hit evaluation of the MMV Hit Generation Library 1 (HGL1) against asexual blood stage Plasmodium falciparum ,using a nano luciferase reporter read-out” (2022).

The structures appear in SMILES notation. The campaign covered roughly 150,000 compounds. About 540 (0.36%) showed an effect of 50% or more. Some of the results follow.

The test system of this assay is Plasmodium falciparum. Put plainly: Primary screen in NF54 nanoGlo assay, in single point, at 2uM, 72h; a lower Z score goes with more inhibition. The class given is functional, Erythrocyte. Conditions: timepoint 72 hour.
For `Cc1ccsc1[C@@H]1CCCCCN1S(=O)(=O)c1ccc(F)cc1`, the % Inhibition – broadly, the drop in the measured response relative to a control, in per cent – is on record as -12% and the Z score was found to be 1.58.

On to `CCn1cc(CN(CCOC)CC(=O)N2CCCCCC2)cn1`, for which the “% Inhibition” value is -14% and the Z score is 2.31.

Take `c1nc(N2CCC(n3cc(C4CC4)nn3)CC2)c2nc[nH]c2n1`: the “% Inhibition” value is on record as -24% and the Z score worked out at 2.86.

In the case of `Cc1ccsc1[C@H](C)NCc1cccc(COC2CCOCC2)c1`, the “% Inhibition” value was -1% and the Z score is listed as 0.08.

`CCc1ncc(CN2CCn3c(Cc4ccccc4F)nnc3C2)o1`: the “% Inhibition” value was -16% and the Z score is 1.76.

As for `CC(C)n1cc(CNC(=O)Cc2cc3ccccc3s2)nn1`, the “% Inhibition” value is listed as -15% and the Z score is recorded as 1.9.

For `CCOC(=O)c1noc2ncnc(NC3CCN(Cc4ccccc4)CC3)c12`, the “% Inhibition” value is reported as 1% and the Z score is reported as -0.25.

With `CS(=O)(=O)N[C@H]1CCCN(Cc2ccn(-c3ccc(F)cc3F)n2)C1`, the “% Inhibition” value stood at 1% and the Z score was -0.1.

In the case of `O=C1Nc2ccc(Br)cc2C(=O)N2CCN(C(=O)c3ccccc3)C[C@H]12`, the “% Inhibition” value stood at 17% and the Z score is given as -1.94.

Turning to `C=CCCS(=O)(=O)N1CCN(S(=O)(=O)CCC=C)[C@@H](C)C1`, the “% Inhibition” value was 1% and the Z score is on record as -0.09.

As to `COCc1noc(CCNC(=O)Nc2cc(-n3cnnn3)cc(C)c2C)n1`, the “% Inhibition” value is given as -25% and the Z score was found to be 2.19.

Consider `CCN(CC(C)C)C(=O)c1ncoc1C(C)C`, for which the “% Inhibition” value worked out at 6% and the Z score is reported as -0.79.

Regarding `C[C@@H](C(=O)N1CCC(c2ncon2)CC1)n1cc(Cl)cn1`, the “% Inhibition” value came to 10% and the Z score was -1.35.

Regarding `CCN(CC)c1ccc(C(c2c[nH]c3ccccc23)c2c[nH]c3ccccc23)c(OC)c1`, the “% Inhibition” value was -40% and the Z score amounted to 4.74.

For the compound `CC[C@H](Nc1ccc(C(=O)NCc2noc(C(C)C)n2)cn1)c1ncnn1C`, the “% Inhibition” value is -11% and the Z score is recorded as 1.36.

As to `Cc1sc(NC(=O)c2scnc2C2CC2)nc1-c1c(F)cc(F)cc1F`, the “% Inhibition” value is -6% and the Z score is recorded as 0.68.

As to `CC[C@H]1CN(CC)CCN1C(=O)c1ccn(C(C)C)n1`, the “% Inhibition” value is recorded as -16% and the Z score came out at 2.03.

On to `Cc1cnc(NC(=O)CCC(=O)Nc2nc(C(=O)O)c(C(C)C)s2)s1`, for which the “% Inhibition” value was -13% and the Z score stood at 1.66.

On to `CC1(C)NC(=O)N(CCNC(c2ccccc2)c2ccccc2)C1=O`, for which the “% Inhibition” value is given as -5% and the Z score was 0.78.

On to `C#Cc1cccc(N(Cc2nc(N)nc(N(C)C)n2)C(C)C)c1`, for which the “% Inhibition” value is 1% and the Z score was -0.09.

On to `Cc1cc(C)n(CC(=O)N2CCC[C@@](F)(C(=O)N3CCOCC3)C2)n1`, for which the “% Inhibition” value is recorded as -11% and the Z score stood at 0.94.

With `COc1cccc(CNC(=O)c2cc(NS(C)(=O)=O)cc3nc(C)n(Cc4ccccc4)c23)c1`, the “% Inhibition” value is on record as -5% and the Z score was found to be 0.8.

Take `Cn1cc(-c2cc3n(n2)CCC(=O)N3CC(=O)Nc2cccc(F)c2)c2ccccc21`: the “% Inhibition” value was found to be 3% and the Z score was -0.5.

Consider `O=c1[nH]nc2n1CCN(Cc1ccncc1)CC2`, for which the “% Inhibition” value is -11% and the Z score is recorded as 1.51.

Turning to `CCC(CC)C(=O)N(C)c1ccc(-c2ccccc2)nn1`, the “% Inhibition” value was -9% and the Z score is recorded as 1.68.

Turning to `NS(=O)(=O)CC1CCN(Cc2cc3ccccc3[nH]c2=O)CC1`, the “% Inhibition” value is listed as 1% and the Z score is recorded as -0.12.

Regarding `O=C(NCCS(=O)(=O)NCc1cccs1)c1ccccc1`, the “% Inhibition” value is -6% and the Z score is recorded as 0.82.

In the case of `COc1cc(-c2cccc(C(=O)NC3CCOCC3)c2)cc(OC)c1OC`, the “% Inhibition” value is recorded as -8% and the Z score is 1.53.

For the compound `Clc1ccc(-c2nc3cc(-n4cnnc4)ccc3o2)cc1`, the “% Inhibition” value is recorded as -17% and the Z score came to 2.38.

For the compound `O=C(c1ccc(-c2nc(C3CC3)no2)cc1)N1CCCCCC1`, the “% Inhibition” value was 26% and the Z score is -2.92.

As for `CCC(NC(=O)N1CC(C)OC2(CCCCC2)C1)C(F)F` (centres undefined), the “% Inhibition” value came out at 4% and the Z score is on record as -0.8.

Regarding `CC1(C2CCN(C(=O)c3ccc4[nH]cnc4c3)CC2)OCCO1`, the “% Inhibition” value is listed as -11% and the Z score is recorded as 1.55.

Turning to `CCn1nc(C)c2ccn(CC(=O)NCc3ccc4c(c3)OCO4)c(=O)c21`, the “% Inhibition” value is 13% and the Z score is on record as -1.28.

As for `O=C(Cn1ccc(=O)cc1)NCCc1csc(-c2ncccn2)n1`, the “% Inhibition” value is recorded as -10% and the Z score was 1.42.

In the case of `Cc1nn(CC(=O)N(Cc2ccccn2)Cc2ccco2)c(C)c1C`, the “% Inhibition” value is -22% and the Z score was determined as 3.24.

Turning to `COc1ccc(C2(NC(=O)Cn3nccn3)CCCCCC2)cc1`, the “% Inhibition” value is reported as 1% and the Z score is -0.08.

Take `Cc1cc2[nH]c(=O)[nH]c2cc1S(=O)(=O)NC1CCCCC1`: the “% Inhibition” value was -5% and the Z score is 0.69.

For the compound `O=C(CCc1conc1-c1ccc(F)cc1)NC1CCCCC1`, the “% Inhibition” value is recorded as -14% and the Z score is listed as 1.91.

With `COc1ccc(Nc2nn(-c3ccc(OC(F)(F)F)cc3)nc2C(C)=O)c2ncccc12`, the “% Inhibition” value was -13% and the Z score is recorded as 1.85.

As to `Cc1nc(O)cc([C@H]2CCCN(C(=O)COCC(F)(F)C(F)F)C2)n1`, the “% Inhibition” value is reported as -15% and the Z score stood at 1.51.

Take `Cn1nccc1[C@@H]1CCCN1Cc1nccc(N)n1`: the “% Inhibition” value is -1% and the Z score was 0.11.

For `N#Cc1cnc(OCC2CC(F)(F)C2)c(Cl)c1`, the “% Inhibition” value is recorded as -9% and the Z score is reported as 1.22.
